{
  "source": "PubChem BioAssay AID504332",
  "about": "(National Center for Advancing Translational Sciences (NCATS), 2011)",
  "note": "Values joined by “and” are separate entries in the source; they are usually repeats but may differ in a detail not shown here. Equal values may be shown once. The whole screen tested about 350,000 compounds, of which about 31,000 (8.9%) were called active. The inconclusive results got no clear call from the source; some entries with a clear call stand among them for comparison. Calls follow the shape of the dose curve; as a rule, active = well fitted inhibition curve with a large enough effect; inconclusive = small, poorly fitted or top-dose-only effect; inactive = no such curve, though single readings can be large or run the other way. Potencies of inconclusive entries are doubtful fits and often do not repeat. % is scaled to controls: 0 for no effect and ±100 for the full control effect; potency is read from the fitted curve at half-maximal effect; tags tell the direction and shape of the fitted curve.",
  "data": [
    {"biological_target": "Histone-lysine N-methyltransferase EHMT2 (Homo sapiens) (UniProt Q96KQ7)", "sequence (Q96KQ7 whole entry, looked up)": "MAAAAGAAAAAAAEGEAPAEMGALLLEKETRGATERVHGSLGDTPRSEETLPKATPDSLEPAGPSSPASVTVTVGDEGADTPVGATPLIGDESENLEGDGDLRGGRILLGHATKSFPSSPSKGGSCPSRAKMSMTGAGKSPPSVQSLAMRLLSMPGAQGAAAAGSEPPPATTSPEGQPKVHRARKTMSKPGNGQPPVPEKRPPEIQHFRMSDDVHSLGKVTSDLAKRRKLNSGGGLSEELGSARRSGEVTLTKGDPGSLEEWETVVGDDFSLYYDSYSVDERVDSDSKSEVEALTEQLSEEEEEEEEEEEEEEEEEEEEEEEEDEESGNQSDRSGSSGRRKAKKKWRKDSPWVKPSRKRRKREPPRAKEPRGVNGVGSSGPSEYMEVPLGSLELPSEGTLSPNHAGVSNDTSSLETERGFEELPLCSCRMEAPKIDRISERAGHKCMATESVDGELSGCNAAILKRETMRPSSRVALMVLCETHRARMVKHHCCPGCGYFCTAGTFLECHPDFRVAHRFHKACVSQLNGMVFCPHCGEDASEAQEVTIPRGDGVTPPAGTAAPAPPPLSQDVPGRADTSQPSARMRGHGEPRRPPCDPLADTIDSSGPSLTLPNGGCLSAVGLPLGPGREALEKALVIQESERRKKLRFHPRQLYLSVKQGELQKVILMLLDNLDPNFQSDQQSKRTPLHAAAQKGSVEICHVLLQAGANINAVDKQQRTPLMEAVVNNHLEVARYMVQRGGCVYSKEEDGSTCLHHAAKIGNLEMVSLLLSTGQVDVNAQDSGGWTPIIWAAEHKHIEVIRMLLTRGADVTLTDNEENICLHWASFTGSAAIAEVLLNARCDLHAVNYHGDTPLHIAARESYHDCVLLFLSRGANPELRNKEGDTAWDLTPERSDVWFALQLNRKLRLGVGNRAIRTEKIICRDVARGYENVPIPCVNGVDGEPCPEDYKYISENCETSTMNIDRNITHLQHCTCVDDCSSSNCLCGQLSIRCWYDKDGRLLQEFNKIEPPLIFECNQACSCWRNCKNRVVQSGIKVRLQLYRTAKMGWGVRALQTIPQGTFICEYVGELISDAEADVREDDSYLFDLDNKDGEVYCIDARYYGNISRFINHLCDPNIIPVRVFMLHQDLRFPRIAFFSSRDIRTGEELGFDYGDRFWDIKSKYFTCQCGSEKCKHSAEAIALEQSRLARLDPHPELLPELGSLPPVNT", "test": "qHTS Assay for Inhibitors of Histone Lysine Methyltransferase G9a; also: nearly all actives have a fitted effect of over 75% in size", "details": "G9a H3K9 monomethylation, AlphaScreen, 2 h; activity, negative = inhibition: at 59 µM (top of the series) unless noted", "summary_of_the_method": "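Using a bead-based AlphaScreen, monomethylated H3K9 product from 2 h room-temperature reactions (G9a 20 nM, peptide 500 nM, SAM 20 uM) was detected with 0.5 ug/mL rabbit anti-H3K9me1 antibody.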", "values": [
      {"smiles": "COC(=O)c1cccc(Nc2ncnc3sccc23)c1", "Potency": "active: 35.5 µM"},
      {"smiles": "Cc1cc(C(=O)N2CCCC2C(=O)O)c(C)o1", "note": "(stereo not drawn)", "Potency": "inconclusive: 79.4 µM [inhibitor, partial curve]"},
      {"smiles": "COc1cccc(NC(=O)C(=O)N/N=C/c2cc(C)n(-c3ccc(Cl)c(Cl)c3)c2C)c1", "activity, negative = inhibition": "inactive: 7.31% [at 102 µM]"},
      {"smiles": "CCN(CC)C(=O)CSc1nc(-c2cccs2)cc(-c2cccs2)c1C#N", "Potency": "active: 3.98 µM"},
      {"smiles": "O=C(N1CCCCC1)C12CC3CC(CC(C3)C1)C2", "Potency": "inconclusive: 39.8 µM [inhibitor, single point]"},
      {"smiles": "COc1ccc(Br)cc1S(=O)(=O)NNC(=O)c1c(C)nc2ccccn12", "Potency": "active: 79.4 µM"},
      {"smiles": "Cc1ccc(NC(=S)N2CCCC(O)C2)cc1", "note": "(stereo not drawn)", "Potency": "inconclusive: 35.5 µM [inhibitor, partial curve, poor fit]"},
      {"smiles": "O=C(N/N=C/c1ccncc1)c1ccc(NS(=O)(=O)c2cccs2)cc1", "Potency": "inconclusive: 31.6 µM [inhibitor, partial curve]"},
      {"smiles": "COc1ccc2[nH]c(CN3CCC(CO)(CCOc4ccccc4)CC3)c(C)c2c1", "Potency": "inconclusive: 39.8 µM [inhibitor, partial curve]"},
      {"smiles": "Cc1nn(-c2ccccc2)c(C)c1/C=N/n1c(-c2ccc(Cl)cc2)n[nH]c1=S", "Potency": "active: 5.01 µM"},
      {"smiles": "CCOc1ccc(NS(=O)(=O)c2ccc3[nH]c4c(c3c2)CCCC4)cc1", "Potency": "inconclusive: 25.1 µM [inhibitor, single point]"},
      {"smiles": "Cc1cc(C)cc(C(=O)NC2CC(C)(C)NC(C)(C)C2)c1", "Potency": "inconclusive: 100 µM [inhibitor, single point]"},
      {"smiles": "CCCC(=O)OCCNc1cc(Sc2nccn2C)c2nonc2c1[N+](=O)[O-]", "Potency": "active: 28.2 µM"},
      {"smiles": "O=C(/C=C\\c1ccc(-c2cccc([N+](=O)[O-])c2)o1)N1CCOCC1", "Potency": "active: 31.6 µM"},
      {"smiles": "CCC(=O)Nc1nc2c(s1)COc1ccccc1-2", "Potency": "inconclusive: 39.8 µM [inhibitor, single point]"},
      {"smiles": "COc1ccc(NC(=O)CC2(Cc3ccccc3)CCOC(C)(C)C2)cc1", "note": "(stereo not drawn)", "activity, negative = inhibition": "inactive: 0.818%"},
      {"smiles": "Cc1cc(C(=O)N/N=C/c2cc(Br)cc([N+](=O)[O-])c2O)c2ccccc2n1", "Potency": "inconclusive: 22.4 µM [inhibitor, single point]"},
      {"smiles": "Cc1c(Cl)cccc1NC(=O)CSc1nc(=O)n(Cc2ccccn2)c2c1CCC2", "activity, negative = inhibition": "inactive: 1.4%"},
      {"smiles": "COc1cccc(CNC(=O)c2ccccc2-c2ccccc2C(=O)O)c1", "Potency": "inconclusive: 89.1 µM [inhibitor, single point]"},
      {"smiles": "Cc1ccc(-n2c(N)c(C(=O)Nc3ccccc3F)sc2=S)cc1C", "Potency": "active: 22.4 µM"},
      {"smiles": "CCOc1cc(N2CCOCC2)c(OCC)cc1NC(=O)COC(=O)CCOc1ccc(C)cc1", "Potency": "inconclusive: 79.4 µM [inhibitor, single point]"},
      {"smiles": "S=C(NCCCN1CCOCC1)NC1CC1", "Potency": "inconclusive: 50.1 µM [inhibitor, partial curve, poor fit]"},
      {"smiles": "COc1ccc2nc(N(Cc3cccnc3)C(=O)c3ccc4c(c3)OCCO4)sc2c1", "Potency": "inconclusive: 5.62 µM [inhibitor, single point]"},
      {"smiles": "COc1ccc(S(=O)(=O)N2CCCCC2)cc1NC(=O)CCNC(=O)c1ccco1", "Potency": "inconclusive: 44.7 µM [inhibitor, partial curve, poor fit]"},
      {"smiles": "CC1=C(C(=O)Nc2ccc(CC(=O)NCc3ccccc3C)cc2)SCCO1", "activity, negative = inhibition": "inactive: 22.6% [at 102 µM]"},
      {"smiles": "COc1ccc(-c2cn3nc(N4CCC(C(=O)Nc5cccc(C)c5C)CC4)sc3n2)cc1", "Potency": "inconclusive: 35.5 µM [inhibitor, partial curve, poor fit]"},
      {"smiles": "Cc1cc([N+](=O)[O-])ccc1NC1CCCC1", "activity, negative = inhibition": "inactive: -0.358%"},
      {"smiles": "CN(C(=O)COC(=O)c1ccc2c(c1)OCO2)C1CCS(=O)(=O)C1", "note": "(stereo not drawn)", "Potency": "inconclusive: 0.282 µM [inhibitor, full curve]"},
      {"smiles": "N=c1oc2cc(O)ccc2cc1C(=O)Nc1ccccn1", "Potency": "inconclusive: 39.8 µM [inhibitor, partial curve]"},
      {"smiles": "Cc1ccc(S(=O)(=O)NCC(=O)N2CCCCC2)cc1", "activity, negative = inhibition": "inactive: 4.48% [at 102 µM]"},
      {"smiles": "Cc1[nH]n(-c2ccc(F)cc2)c(=O)c1/C=N/c1sc2c(c1C#N)CCCC2", "Potency": "inconclusive: 11.2 µM [inhibitor, partial curve, poor fit]"},
      {"smiles": "O=C(NCC(c1ccc(F)cc1)N1CCOCC1)c1nn(-c2ccccc2)c(=O)c2ccccc12", "note": "(stereo not drawn)", "activity, negative = inhibition": "inactive: 10.3%"},
      {"smiles": "CCCN(CCC)C(=O)c1cc([N+](=O)[O-])cc2c1-c1ccc([N+](=O)[O-])cc1C2=C(C#N)C#N", "Potency": "active: 44.7 µM"},
      {"smiles": "COc1ccc(CNC(=O)CN(C)Cc2ccc(SC)cc2)cc1", "Potency": "inconclusive: 89.1 µM [inhibitor, single point]"},
      {"smiles": "CN1C(=O)C(Cc2cnc[nH]2)NC1=S", "note": "(stereo not drawn)", "Potency": "active: 28.2 µM"},
      {"smiles": "O=C(NCc1ccc(S(=O)(=O)NC2CCCCC2)s1)c1ccccc1", "Potency": "inconclusive: 50.1 µM [inhibitor, partial curve, poor fit]"},
      {"smiles": "Cc1ccc(Cl)cc1NC(=O)Nc1cccs1", "Potency": "inconclusive: 79.4 µM [inhibitor, partial curve, poor fit]"},
      {"smiles": "Cc1ccc(CNS(=O)(=O)c2ccc3c(c2)n(C)c(=O)n3C)cc1", "activity, negative = inhibition": "inactive: 38% [at 102 µM]"},
      {"smiles": "O=S(=O)(NCCc1csc(-c2cccnc2)n1)c1ccc2c(c1)OCCO2", "Potency": "inconclusive: 70.8 µM [inhibitor, partial curve, poor fit]"},
      {"smiles": "COc1ccc(-c2[nH]ncc2CN2CCN(Cc3cccs3)CC2)c(F)c1", "Potency": "inconclusive: 79.4 µM [inhibitor, partial curve, poor fit]"},
      {"smiles": "CCc1noc(C)c1C(=O)N1CCN(S(=O)(=O)c2ccc(C)cc2)CC1", "activity, negative = inhibition": "inactive: 5.4% [at 102 µM]"},
      {"smiles": "Cc1nc(NC(=O)Nc2ccc(Cl)cc2)sc1C", "Potency": "inconclusive: 35.5 µM [inhibitor, full curve]"},
      {"smiles": "CCOc1ccc(N2CC(C(=O)Nc3cc(Cl)ccc3-n3cncn3)CC2=O)cc1", "note": "(stereo not drawn)", "Potency": "inconclusive: 35.5 µM [inhibitor, partial curve, poor fit]"},
      {"smiles": "CC(=O)c1c(C)n(-c2ccc(Cl)cc2)c2ccc(O)cc12", "Potency": "inconclusive: 89.1 µM [inhibitor, single point]"},
      {"smiles": "CCOc1ccc(CNC(=O)c2ccc(-c3nc(CS(=O)(=O)c4ccccc4)c(C)o3)cc2)cc1", "activity, negative = inhibition": "inactive: -24.6%"},
      {"smiles": "O=C(COC(=O)CCOc1ccccc1)NCc1ccco1", "Potency": "inconclusive: 44.7 µM [inhibitor, partial curve, poor fit]"},
      {"smiles": "N/C(=N\\OC(=O)c1ccccc1[N+](=O)[O-])c1ccccn1", "Potency": "active: 3.16 µM"},
      {"smiles": "O=C(NCc1nc2ccccc2[nH]1)c1cccc(S(=O)(=O)N2CCCCC2)c1", "Potency": "inconclusive: 50.1 µM [inhibitor, partial curve]"},
      {"smiles": "CC(=O)Nc1sc(NC(=O)c2ccco2)nc1-c1cccs1", "Potency": "inconclusive: 39.8 µM [inhibitor, single point]"},
      {"smiles": "Cc1ccc(NC(=O)C(NS(=O)(=O)c2ccc3c(c2)CCC(=O)N3)c2ccccc2)cc1C", "note": "(stereo not drawn)", "Potency": "inconclusive: 11.2 µM [inhibitor, partial curve, poor fit]"},
      {"smiles": "C/C(=N\\NS(=O)(=O)c1ccc(C)c([N+](=O)[O-])c1)c1ccc2c(c1)OCO2", "Potency": "active: 44.7 µM"},
      {"smiles": "O=C(N/N=C/c1cc2c(cc1Br)OCO2)c1cc2ccccc2o1", "Potency": "active: 39.8 µM"},
      {"smiles": "COc1ccc(-c2noc(CCCC(=O)NC3CCCC3)n2)cc1OC", "Potency": "active: 79.4 µM"},
      {"smiles": "O=S1(=O)C=CC(Sc2nc3ccccc3[nH]2)C1", "note": "(stereo not drawn)", "Potency": "inconclusive: 44.7 µM [inhibitor, partial curve, poor fit]"},
      {"smiles": "COC(=O)c1ccc(CC(=O)c2nc3ccccc3s2)cc1", "activity, negative = inhibition": "inactive: 10.8%"},
      {"smiles": "Oc1ccc(Nc2ccnc3cc(Cl)ccc23)cc1", "Potency": "inconclusive: 14.1 µM [inhibitor, full curve]"},
      {"smiles": "CCC(=O)Nc1nc2nc(-c3ccccc3)cc(=O)n2[nH]1", "Potency": "active: 44.7 µM"},
      {"smiles": "COc1ccc(N2CCN(C(=O)c3ccc4c(c3)NC(=O)C(CSCc3ccc(C)cc3)N4)CC2)cc1", "note": "(stereo not drawn)", "Potency": "active: 7.94 µM"},
      {"smiles": "N#Cc1c(NC(=O)Cn2cnc3ccccc3c2=O)oc(-c2ccccc2)c1-c1ccccc1", "activity, negative = inhibition": "inconclusive: -67.6% [inhibitor]"},
      {"smiles": "CCOc1ccccc1NC(=O)Cn1ccn(-c2ccccc2)c(=O)c1=O", "Potency": "inconclusive: 1.41 µM [inhibitor, full curve, poor fit]"},
      {"smiles": "O=S(=O)(c1ccc2c(c1)N(Cc1ccc(Cl)cc1)C1CCCN21)N1CCOCC1", "note": "(stereo not drawn)", "Potency": "active: 50.1 µM"},
      {"smiles": "CCOC(=O)C1CCN(Cc2nc3ccccc3c(=O)n2-c2ccc(F)cc2)CC1", "Potency": "inconclusive: 89.1 µM [inhibitor, single point]"},
      {"smiles": "O=C1NCC(CN(c2ccccc2)c2ccccc2)O1", "note": "(stereo not drawn)", "Potency": "inconclusive: 8.91 µM [inhibitor, partial curve]"},
      {"smiles": "Cc1c(N=Cc2c(O)n(Cc3ccco3)c(=O)c3ccccc23)c(=O)n(-c2ccccc2)n1C", "Potency": "inconclusive: 4.47 µM [inhibitor, single point] and inconclusive: 50.1 µM [inhibitor, partial curve]"},
      {"smiles": "CCn1ccc2cc(S(=O)(=O)N3CCC(C(=O)NCc4cccc(C)c4)CC3)ccc21", "activity, negative = inhibition": "inactive: 3.18%"},
      {"smiles": "O=C(Cc1ccc([N+](=O)[O-])cc1)N1CCN(c2ccc([N+](=O)[O-])cc2)CC1", "Potency": "inconclusive: 31.6 µM [inhibitor, partial curve, poor fit]"},
      {"smiles": "COc1ccc(S(=O)(=O)N2CCN(c3ccccc3OC)CC2)cc1-c1noc(C)n1", "Potency": "inconclusive: 25.1 µM [inhibitor, partial curve, poor fit]"},
      {"smiles": "O=S(=O)(c1cccc2nsnc12)N1CCNCC1", "Potency": "inconclusive: 0.794 µM [inhibitor, full curve, poor fit]"}
    ]}
  ]
}
